# In the supplement of paper PMC10338343:
# ± gives the standard deviation. Whole data set: some 3,700 sequences, median “pre-steady-state target cleavage rate” near 0.02, cut for the highest 2% near 0.23. The list shows a part of the results, in another mix than the full data.
# Test system: MILI (PIWIL2) piRISC loaded with Kctd7 piRNA (26 nt)
# Assay: pre-steady-state target cleavage rate (min^-1); MIWI and MILI are mouse PIWI proteins and EfPiwi is from a freshwater sponge; tags in brackets are library labels; higher = faster piRNA-guided slicing of the target
# Conditions: guide: Kctd7 piRNA 5'p-UGUUAAUCUCUCAGAGAAGGUGACAG; auxiliary factor: 500 nM mouse GTSF1
# Method: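 Cleave-'n-Seq: a library of target RNAs (target site embedded in constant flanks, ACAGCATTCCGCGTTAGTGATATCCG... 5' flank; DNA-blocked outside the site) at 0.1 nM was incubated with 1 nM active mouse MILI or MIWI piRISC (synthetic 5'-monophosphorylated piRNA guide) with or without 500 nM mouse GTSF1 at 33 °C for 1 min to 16 h. Uncleaved targets were sequenced and normalised to non-target controls, and the pooled three trials were fitted to a burst-and-steady-state model to give the pre-steady-state cleavage rate (min^-1; k3 is constrained to at most 1e-4). Sequence is the target site only; target names encode pairing extent (gX:gY) and contiguous / 1-mismatch / 2-mismatch / bulge geometry. Fits with R² ≤ 0 are excluded.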
row,Sequence,pre-steady-state target cleavage rate
1,UAGUGAGUCACCAUCUCUGAGAGAUUUACA,0.116 ± 0.023
2,UAGUGACAGACCUUUUCUGAGAGAUUAACA,0.0857 ± 0.011
3,UAGUGACACACCUUCUCUGGGAGAUUAACA,0.141 ± 0.013
4,UAGUGAGUCACCCUCUCUGAGAGAUUAACA,0.179 ± 0.021
5,UAGUGACACACGUUCUCUGAGAGAAUAACA,0.0308 ± 0.01
6,UAGUGUAGUCACCUUCUCUGAGAGAUUAACA,0.219 ± 0.019
7,UAGUGACACUCCUUCUCUGACAGAUUAACA,0.0452 ± 0.0059
8,UAGUGACACACCUUCUCUGAGACUAUAUGA,< 0.0001
9,UAGUGAGUGACCUUCACUGAGAGAUUAACA,0.105 ± 0.014
10,UAGUGACAGACCUUGUCUGAGAGAUUAACA,0.0481 ± 0.0096
11,UAGUGACAGACCUUCUCUGAGAGAUUAACCA,0.116 ± 0.018
12,UAGUGACUCACCUACUCUGAGAGAUAAACA,0.0326 ± 0.011
13,UAGUGACAGUCCUUCUGUGAGAGAUUAUCA,0.00527 ± 0.0037
14,UAGUGUGUGAGCUUCUCUGAGAGAUUAACA,0.0828 ± 0.011
15,UAGUCUGUCACCUUCUCUGAGAUAUUAACA,0.122 ± 0.018
16,UAGUGACUGACCUUCUCUGAGAGAUUAUGA,0.0133 ± 0.0064
17,UAGUGACAGUCCAUCACUGAGAGAUUAACA,0.0134 ± 0.0039
18,UAGUGACUGACCUUCUCUGAGAGAAUAACA,0.0354 ± 0.012
19,UAGUGAGUCACCUUCUGUGAGAGAUUUACA,0.0322 ± 0.014
20,UAGUGAGUCACCAUCUCUGAGAGAUUAAGA,0.0541 ± 0.017
21,UAGUGACAGAUCUUCUCUGAGAGAUUAACA,0.0797 ± 0.0085
22,UAGUGAGUCAGCAUCUCUGAGAGAUUAACA,0.105 ± 0.0096
23,UAGUGACAGUGCUUCUCUGAGAGAAUUAACA,0.0127 ± 0.0041
24,UAGUGUGACACCUUCUCUGAGAGUUUAACA,0.123 ± 0.038

row,Sequence,pre-steady-state target cleavage rate
1,UAGUCUGUCAGCUUCUCUGAGAGAUUAAGA,0.0299 ± 0.0077
2,UAGUGACAGUGCAUCACUGAGAGAUUAACA,0.00615 ± 0.0028
3,UAGUGACAGUGGAUCUGUGAGUGAUUAACA,< 0.0001
4,UAGUGACACACCUUCUCUGAGAGAUUAGCA,0.0856 ± 0.021
5,UAGUGAGUCACCAUCUCAGAGAGAUUAACA,0.0744 ± 0.0093
6,UAGUGACAGUCCUUCUCUGAGAGAUUAUCA,0.0227 ± 0.0061
7,UAGUGACAGUCCUUCUCUGAGAGAUUAACA [g2:g20:cont:t1A],0.0942 ± 0.0076
8,UAGUGUGUCACCUACUCUGACAGAUUAACA,0.0305 ± 0.006
9,UAGUCAGUCACCUUCUCAGAGAGAUUAACA,0.184 ± 0.019
10,UAGUGACUCACCUUCUCUCAGAGUUUAACA,0.0241 ± 0.0079
11,UAGUGACAGUCCUUCUCUGAGUCAUUAAGA,< 0.0001
12,UAGUCUGUGACCUUCUCUGAGAGAUUAAGA,0.0692 ± 0.011
13,UAGUGACACAGCUUCUCUGAGAGAUUAAGA,0.0257 ± 0.0046
14,UAGUGUGUCACCUUCAGUGAGAGAUUAACA,0.0945 ± 0.014
15,UAGUGUAUCACCUUCUCUGAGAGAUUAACA,0.14 ± 0.015
16,UAGUGACAGUCCUAGUCUGAGAGAUUAACA,0.0204 ± 0.0034
17,UAGUCACUCACCUUCUCUGAGAGAUUUUGA,0.0174 ± 0.0076
18,UAGUGACACACCUGCUCUGAGAGAUUAACA,0.128 ± 0.0093
19,UAGUGACACACCUUCUCAGAGAGAUUAUGA,0.0269 ± 0.01
20,UAGUGUGUCACCUUCUCUGUGAGAAUAACA,0.0183 ± 0.0076
21,UAGUGACAGACCUGCUCUGAGAGAUUAACA,0.0943 ± 0.014
22,UAGUGUGUCACCUUCUCACAGAGAUUAACA,0.0718 ± 0.021
23,UAGUGACUCACCUUCUCACUGAGAUUAACA,0.00822 ± 0.0033
24,UAGUGACACUCCUUCUCUGAGAGAUAAACA,0.0379 ± 0.0083

row,Sequence,pre-steady-state target cleavage rate
1,UAGUGACAGUCCUUCUCUGAGAGAUUAACC [g2:g20:cont:t1C],0.0605 ± 0.01
2,UAGUGUGUCACCUUCUCUGAGUGAUUAACA,0.00848 ± 0.0049
3,UAGUCUGUCUCCUUCUCUGAGAGAAUAACA,0.0604 ± 0.014
4,UAGUGACAGUGGAUCUCUGAGAGUAUAACA,< 0.0001
5,UAGUGACAGACCUUCUCUGUCAGAUUAACA,0.013 ± 0.0043
6,UAGUGAGUCACCUACUCUGAGAGAUUAAGA,0.0791 ± 0.018
7,UAGUGACACACCAUCUCUGAGAGUUUAACA,0.0726 ± 0.021
8,UAGUGACAGUGGUCUCUCUGAGAGAUUAACA,0.00439 ± 0.0021
9,UAGUGUGUCACCUACUGUGAGAGAUUAACA,0.112 ± 0.0091
10,UAGUGACAGACACUUCUCUGAGAGAUUAACA,0.0311 ± 0.0079
11,UAGUGACAGAGCUACUCUGAGAGAUUAACA,0.0145 ± 0.0035
12,UAGUGACAGUGCUUCUCUCAGACAUUAACA,0.00361 ± 0.0031
13,UAGUGACAGACCUUCACUGAGAGUUUAACA,0.0174 ± 0.008
14,UAGUGUGUCACCAUCUCUGAGAGAUUUACA,0.158 ± 0.033
15,UAGUGACAGUCCUUUCUGAGAGAUUAACA,0.0132 ± 0.0041
16,UAGUGAGUGUCCUUCUCUGAGAGAUUAAGA,0.0291 ± 0.01
17,UAGUGAGUCACCUACACUGAGAGAUUAACA,0.113 ± 0.0093
18,UAGUGACAGUCCUUCUCUGAGAGAUUAACU [g2:g20:cont:t1U],0.0552 ± 0.0092
19,UAGUGAGCUCACCUUCUCUGAGAGAUUAACA,0.15 ± 0.016
20,UAGUGAGCCACCUUCUCUGAGAGAUUAACA,0.218 ± 0.025
21,UAGUGACACACCUUCUCAGAGAGAUAAACA,0.0619 ± 0.013
22,UAGUCUGUCACCUUCUCUGAGAGAUUACA,0.158 ± 0.036
23,UAGUCUGACACCAUCUCUGAGAGAUUAACA,0.11 ± 0.0062
